# Measurements taken from the supplement of paper PMC12423691.
# The list shows a part of the results. Binding of human transcription factors and regulators to the viral nucleoprotein by AlphaScreen, crude cell-free proteins, amounts not normalised, one pass. Fold of the Venus control; higher = more signal. No active / inactive call. Single-pass screen; sequences are the whole Swiss-Prot entries looked up by name.
# B1: PKNOX1, P55347 (protein)
# chain: MMATQTLSIDSYQDGQQMQVVTELKTEQDPNCSEPDAEGVSPPPVESQTPMDVDKQAIYRHPLFPLLALLFEKCEQSTQGSEGTTSASFDVDIENFVRKQEKEGKPFFCEDPETDNLMVKAIQVLRIHLLELEKVNELCKDFCSRYIACLKTKMNSETLLSGEPGSPYSPVQSQQIQSAITGTISPQGIVVPASALQQGNVAMATVAGGTVYQPVTVVTPQGQVVTQTLSPGTIRIQNSQLQLQLNQDLSILHQDDGSSKNKRGVLPKHATNVMRSWLFQHIGHPYPTEDEKKQIAAQTNLTLLQVNNWFINARRRILQPMLDSSCSETPKTKKKTAQNRPVQRFWPDSIASGVAQPPPSELTMSEGAVVTITTPVNMNVDSLQSLSSDGATLAVQQVMMAGQSEDESVDSTEEDAGALAPAHISGLVLENSDSLQ
# B2: WFS1, O76024 (protein)
# chain: MDSNTAPLGPSCPQPPPAPQPQARSRLNATASLEQERSERPRAPGPQAGPGPGVRDAAAPAEPQAQHTRSRERADGTGPTKGDMEIPFEEVLERAKAGDPKAQTEVGKHYLQLAGDTDEELNSCTAVDWLVLAAKQGRREAVKLLRRCLADRRGITSENEREVRQLSSETDLERAVRKAALVMYWKLNPKKKKQVAVAELLENVGQVNEHDGGAQPGPVPKSLQKQRRMLERLVSSESKNYIALDDFVEITKKYAKGVIPSSLFLQDDEDDDELAGKSPEDLPLRLKVVKYPLHAIMEIKEYLIDMASRAGMHWLSTIIPTHHINALIFFFIVSNLTIDFFAFFIPLVIFYLSFISMVICTLKVFQDSKAWENFRTLTDLLLRFEPNLDVEQAEVNFGWNHLEPYAHFLLSVFFVIFSFPIASKDCIPCSELAVITGFFTVTSYLSLSTHAEPYTRRALATEVTAGLLSLLPSMPLNWPYLKVLGQTFITVPVGHLVVLNVSVPCLLYVYLLYLFFRMAQLRNFKGTYCYLVPYLVCFMWCELSVVILLESTGLGLLRASIGYFLFLFALPILVAGLALVGVLQFARWFTSLELTKIAVTVAVCSVPLLLRWWTKASFSVVGMVKSLTRSSMVKLILVWLTAIVLFCWFYVYRSEGMKVYNSTLTWQQYGALCGPRAWKETNMARTQILCSHLEGHRVTWTGRFKYVRVTDIDNSAESAINMLPFFIGDWMRCLYGEAYPACSPGNTSTAEEELCRLKLLAKHPCHIKKFDRYKFEITVGMPFSSGADGSRSREEDDVTKDIVLRASSEFKSVLLSLRQGSLIEFSTILEGRLGSKWPVFELKAISCLNCMAQLSPTRRHVKIEHDWRSTVHGAVKFAFDFFFFPFLSAA
# B3: SIX4, Q9UIU6 (protein)
# chain: MSSSSPTGQIASAADIKQENGMESASEGQEAHREVAGGAAVGLSPPAPAPFPLEPGDAATAAARVSGEEGAVAAAAAGAAADQVQLHSELLGRHHHAAAAAAQTPLAFSPDHVACVCEALQQGGNLDRLARFLWSLPQSDLLRGNESLLKARALVAFHQGIYPELYSILESHSFESANHPLLQQLWYKARYTEAERARGRPLGAVDKYRLRRKFPLPRTIWDGEETVYCFKEKSRNALKELYKQNRYPSPAEKRHLAKITGLSLTQVSNWFKNRRQRDRNPSETQSKSESDGNPSTEDESSKGHEDLSPHPLSSSSDGITNLSLSSHMEPVYMQQIGNAKISLSSSGVLLNGSLVPASTSPVFLNGNSFIQGPSGVILNGLNVGNTQAVALNPPKMSSNIVSNGISMTDILGSTSQDVKEFKVLQSSANSATTTSYSPSVPVSFPGLIPSTEVKREGIQTVASQDGGSVVTFTTPVQINQYGIVQIPNSGANSQFLNGSIGFSPLQLPPVSVAASQGNISVSSSTSDGSTFTSESTTVQQGKVFLSSLAPSAVVYTVPNTGQTIGSVKQEGLERSLVFSQLMPVNQNAQVNANLSSENISGSGLHPLASSLVNVSPTHNFSLSPSTLLNPTELNRDIADSQPMSAPVASKSTVTSVSNTNYATLQNCSLITGQDLLSVPMTQAALGEIVPTAEDQVGHPSPAVHQDFVQEHRLVLQSVANMKENFLSNSESKATSSLMMLDSKSKYVLDGMVDTVCEDLETDKKELAKLQTVQLDEDMQDL
# B4: IKZF4, Q9H2S9 (protein)
# chain: MHTPPALPRRFQGGGRVRTPGSHRQGKDNLERDPSGGCVPDFLPQAQDSNHFIMESLFCESSGDSSLEKEFLGAPVGPSVSTPNSQHSSPSRSLSANSIKVEMYSDEESSRLLGPDERLLEKDDSVIVEDSLSEPLGYCDGSGPEPHSPGGIRLPNGKLKCDVCGMVCIGPNVLMVHKRSHTGERPFHCNQCGASFTQKGNLLRHIKLHSGEKPFKCPFCNYACRRRDALTGHLRTHSVSSPTVGKPYKCNYCGRSYKQQSTLEEHKERCHNYLQSLSTEAQALAGQPGDEIRDLEMVPDSMLHSSSERPTFIDRLANSLTKRKRSTPQKFVGEKQMRFSLSDLPYDVNSGGYEKDVELVAHHSLEPGFGSSLAFVGAEHLRPLRLPPTNCISELTPVISSVYTQMQPLPGRLELPGSREAGEGPEDLADGGPLLYRPRGPLTDPGASPSNGCQDSTDTESNHEDRVAGVVSLPQGPPPQPPPTIVVGRHSPAYAKEDPKPQEGLLRGTPGPSKEVLRVVGESGEPVKAFKCEHCRILFLDHVMFTIHMGCHGFRDPFECNICGYHSQDRYEFSSHIVRGEHKVG
# B5: NKX2-2, O95096 (protein)
# chain: MSLTNTKTGFSVKDILDLPDTNDEEGSVAEGPEEENEGPEPAKRAGPLGQGALDAVQSLPLKNPFYDSSDNPYTRWLASTEGLQYSLHGLAAGAPPQDSSSKSPEPSADESPDNDKETPGGGGDAGKKRKRRVLFSKAQTYELERRFRQQRYLSAPEREHLASLIRLTPTQVKIWFQNHRYKMKRARAEKGMEVTPLPSPRRVAVPVLVRDGKPCHALKAQDLAAATFQAGIPFSAYSAQSLQHMQYNAQYSSASTPQYPTAHPLVQAQQWTW
# B6: NFKBIA, P25963 (protein)
# chain: MFQAAERPQEWAMEGPRDGLKKERLLDDRHDSGLDSMKDEEYEQMVKELQEIRLEPQEVPRGSEPWKQQLTEDGDSFLHLAIIHEEKALTMEVIRQVKGDLAFLNFQNNLQQTPLHLAVITNQPEIAEALLGAGCDPELRDFRGNTPLHLACEQGCLASVGVLTQSCTTPHLHSILKATNYNGHTCLHLASIHGYLGIVELLVSLGADVNAQEPCNGRTALHLAVDLQNPDLVSLLLKCGADVNRVTYQGYSPYQLTWGRPSTRIQQQLGQLTLENLQMLPESEDEESYDTESEFTEFTEDELPYDDCVFGGQRLTL
# B7: NACC2, Q96BF6 (protein)
# chain: MSQMLHIEIPNFGNTVLGCLNEQRLLGLYCDVSIVVKGQAFKAHRAVLAASSLYFRDLFSGNSKSAFELPGSVPPACFQQILSFCYTGRLTMTASEQLVVMYTAGFLQIQHIVERGTDLMFKVSSPHCDSQTAVIEDAGSEPQSPCNQLQPAAAAAAPYVVSPSVPIPLLTRVKHEAMELPPAGPGLAPKRPLETGPRDGVAVAAGAAVAAGTAPLKLPRVSYYGVPSLATLIPGIQQMPYPQGERTSPGASSLPTTDSPTSYHNEEDEEDDEAYDTMVEEQYGQMYIKASGSYAVQEKPEPVPLESRSCVLIRRDLVALPASLISQIGYRCHPKLYSEGDPGEKLELVAGSGVYITRGQLMNCHLCAGVKHKVLLRRLLATFFDRNTLANSCGTGIRSSTSDPSRKPLDSRVLNAVKLYCQNFAPSFKESEMNVIAADMCTNARRVRKRWLPKIKSMLPEGVEMYRTVMGSAAASVPLDPEFPPAAAQVFEQRIYAERRGDAATIVALRTDAVNVDLSAAANPAFDAGEEVDGAGSVIQEVAAPEPLPADGQSPPQPFEQGGGGPSRPQTPAAAARRPEGTYAGTL
# B8: FOXD4L3, Q6VB84 (protein)
# chain: MNLPRAERLRSTPQRSLRDSDGEDGKIDVLGEEEDEDEVEDEEEAASQQFLEQSLQPGLQVARWGGVALPREHIEGGGGPSDPSEFGTKFRAPPRSAAASEDARQPAKPPYSYIALITMAILQNPHKRLTLSGICAFISGRFPYYRRKFPAWQNSIRHNLSLNDCFVKIPREPGHPGKGNYWSLDPASQDMFDNGSFLRRRKRFKRHQLTPGAHLPHPFPLPAAHAALHNPRPGPLLGAPAPPQPVPGAYPNTAPGRRPYALLHPHPLRYLLLSAPVYAGAPKKAEGAALATPAPFPCCSPHLVLSLGRRARVWRRHREADASLSALRVLCKGSGERVQGLRRICPRPRGATATCSSDHQACCIPRPLPLCCKCPPPPLLGQFCSNSSSIRRRTAPTAALPPRARCWAGTCRPRRPC
# B9: MID2, Q9UJV3 (protein)
# chain: MGESPASVVLNASGGLFSLKMETLESELTCPICLELFEDPLLLPCAHSLCFSCAHRILVSSCSSGESIEPITAFQCPTCRYVISLNHRGLDGLKRNVTLQNIIDRFQKASVSGPNSPSESRRERTYRPTTAMSSERIACQFCEQDPPRDAVKTCITCEVSYCDRCLRATHPNKKPFTSHRLVEPVPDTHLRGITCLDHENEKVNMYCVSDDQLICALCKLVGRHRDHQVASLNDRFEKLKQTLEMNLTNLVKRNSELENQMAKLIQICQQVEVNTAMHEAKLMEECDELVEIIQQRKQMIAVKIKETKVMKLRKLAQQVANCRQCLERSTVLINQAEHILKENDQARFLQSAKNIAERVAMATASSQVLIPDINFNDAFENFALDFSREKKLLEGLDYLTAPNPPSIREELCTASHDTITVHWISDDEFSISSYELQYTIFTGQANFISKSWCSWGLWPEIRKCKEAVSCSRLAGAPRGLYNSVDSWMIVPNIKQNHYTVHGLQSGTRYIFIVKAINQAGSRNSEPTRLKTNSQPFKLDPKMTHKKLKISNDGLQMEKDESSLKKSHTPERFSGTGCYGAAGNIFIDSGCHYWEVVMGSSTWYAIGIAYKSAPKNEWIGKNASSWVFSRCNSNFVVRHNNKEMLVDVPPHLKRLGVLLDYDNNMLSFYDPANSLHLHTFDVTFILPVCPTFTIWNKSLMILSGLPAPDFIDYPERQECNCRPQESPYVSGMKTCH
# Target: nucleoprotein N of Crimean-Congo hemorrhagic fever virus
# Test: AlphaScreen luminescence signal relative to Venus negative control (fold); higher = stronger binding to CCHFV N
# Description: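 AlphaScreen binding of cell-free made, FLAG-GST-tagged human transcription factors and regulators (crude translation products) to biotinylated N protein; signal as fold of the FLAG-GST-Venus control. One pass.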
row,Binder,AlphaScreen luminescence signal
1,B1,1.95
2,B2,2.51
3,B3,1.91
4,B4,1.77
5,B5,2.42
6,B6,4.05
7,B7,2.05
8,B8,1.67
9,B9,2.28
